Source: paper PMC11302665

Target: T1, L-cysteine desulfurase IscS (E. coli), P0A6B7
T1 chain: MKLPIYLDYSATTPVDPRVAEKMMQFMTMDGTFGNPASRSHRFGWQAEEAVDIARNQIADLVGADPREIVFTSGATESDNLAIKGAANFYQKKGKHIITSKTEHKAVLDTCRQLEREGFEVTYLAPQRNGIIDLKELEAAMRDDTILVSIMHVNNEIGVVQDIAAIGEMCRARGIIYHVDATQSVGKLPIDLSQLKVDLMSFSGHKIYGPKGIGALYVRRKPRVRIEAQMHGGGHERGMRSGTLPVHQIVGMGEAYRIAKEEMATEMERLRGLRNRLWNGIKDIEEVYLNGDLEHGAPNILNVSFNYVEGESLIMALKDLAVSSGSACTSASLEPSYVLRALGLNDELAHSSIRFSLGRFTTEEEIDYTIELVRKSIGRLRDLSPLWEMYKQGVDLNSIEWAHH
Assay: native MS; ESI-MS under non-denaturing conditions of IscS alone, 250 mM ammonium acetate, pH 8.0
Details: remark: other sources report otherwise

B1: L-cysteine desulfurase IscS, P0A6B7 1-404 (enzyme)
chain: T1 chain
modifications: here or on the partner: PLP (pyridoxal phosphate) cofactor; PLP (pyridoxal phosphate) cofactor
stoichiometry N: 2
